Assay results as given in paper PMC3052287 (Psychopharmacology, 2010).

Tests used:
h5-HT7 receptor [1] = target: T1, h5-HT7 receptor (Homo sapiens, UniProt P34969)
h5-HT7 receptor [2] = target: T1, h5-HT7 receptor; conditions: 1 μM mesulergine after inactivator and wash; 10 μM 5-HT
h5-HT7 receptor [3] = target: T1, h5-HT7 receptor; conditions: cited from earlier work
h5-HT7 receptor [4] = target: T1, h5-HT7 receptor; conditions: cited from earlier work; remark: listed apart in the source
[5] = intact cells exposed to 1 μM drug 30 min, washed, homogenized, 2 nM [3H]5-HT
[6] = intact cells, ref Smith et al. 2006, Knight et al. 2009

T1 sequence (P34969 whole entry): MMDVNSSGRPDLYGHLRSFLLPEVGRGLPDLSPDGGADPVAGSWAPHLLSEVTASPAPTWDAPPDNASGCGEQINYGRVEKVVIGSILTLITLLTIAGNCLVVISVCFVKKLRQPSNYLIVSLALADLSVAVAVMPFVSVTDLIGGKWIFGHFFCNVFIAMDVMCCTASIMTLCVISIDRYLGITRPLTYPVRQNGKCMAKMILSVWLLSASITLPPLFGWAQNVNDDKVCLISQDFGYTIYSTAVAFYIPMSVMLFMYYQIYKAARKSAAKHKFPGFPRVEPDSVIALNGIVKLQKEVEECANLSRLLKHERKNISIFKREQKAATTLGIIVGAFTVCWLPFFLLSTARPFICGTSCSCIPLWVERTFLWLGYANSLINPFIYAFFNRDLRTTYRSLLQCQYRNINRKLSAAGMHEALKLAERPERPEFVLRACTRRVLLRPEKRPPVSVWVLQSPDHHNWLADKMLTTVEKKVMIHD

Structure (SMILES)	wash-resistant inhibition of [3H]5-HT binding (h5-HT7 receptor [1]; [5])	inactivation of the h5-HT7 receptor (loss of 5-HT-stimulated cAMP accumulation) (h5-HT7 receptor [3]; [6])	inactivation of the h5-HT7 receptor (loss of 5-HT-stimulated cAMP accumulation) (h5-HT7 receptor [3])	wash-resistant inhibition of [3H]5-HT binding (h5-HT7 receptor [1])	also measured
CN1C[C@@H](NS(=O)(=O)N(C)C)C[C@@H]2c3cccc4c3c(cn4C)C[C@H]21 [mesulergine]	did not affect binding	–	–	–	reactivation of 9-OH-risperidone-inactivated receptors (h5-HT7 receptor [2]): able to reactivate; reactivation of bromocriptine-inactivated receptors (h5-HT7 receptor [2]): not able to reactivate; reactivation of methiothepin-inactivated receptors (h5-HT7 receptor [2]): not able to reactivate
CN1C[C@H](CNC(=O)OCc2ccccc2)C[C@@H]2c3cccc4c3c(cn4C)C[C@H]21 [metergoline]	–	inactivate the h5-HT7 receptor	–	–	–
Cc1nc2n(c(=O)c1CCN1CCC(c3noc4cc(F)ccc34)CC1)CCCC2 [risperidone]	–	–	inactivate the h5-HT7 receptor	50%	share of h5-HT7 binding sites bound in a wash-resistant manner (h5-HT7 receptor [4]): 50%
Cc1nc2n(c(=O)c1CCN1CCC(c3noc4cc(F)ccc34)CC1)CCCC2O (stereo not shown) [9-OH-risperidone]	50%	inactivate the h5-HT7 receptor	–	–	share of h5-HT7 binding sites bound in a wash-resistant manner (h5-HT7 receptor [4]; intact cells, ref Knight et al. 2009): 50%
CC(C)C[C@H]1C(=O)N2CCC[C@H]2[C@]2(O)O[C@](NC(=O)[C@@H]3C=C4c5cccc6[nH]c(Br)c(c56)C[C@H]4N(C)C3)(C(C)C)C(=O)N12 [bromocriptine]	–	–	inactivate the h5-HT7 receptor	all of the binding	–

Read-outs that look alike come from different tables or passages of the source.
